In PubChem BioAssay AID1768 (National Center for Advancing Translational Sciences (NCATS), 2009):
In all, about 270,000 compounds went through this assay and about 620 (0.23%) were called active. Inconclusive means that the source gave no clear call. Such entries were picked first, then a sample of the others. Calls come from the whole dose curve; as a rule, active = well fitted inhibition curve with a large enough effect in the polarisation, with a control signal flat (not every such curve was filed as active); inconclusive = small, poorly fitted or top-dose-only effect, or effect the other way, or a change in a side signal; inactive = no such curve, though single readings can be large or run the other way; the % refers to the polarisation. A potency beside an inconclusive call is a rough fit, not a confirmed value. A note “side channel” means that the fit belongs to a control or component signal, not to the main read-out.

Molecular target: Menin (Homo sapiens) (UniProt O00255)
Experiment: qHTS Assay for Inhibitors Targeting the Menin-MLL Interaction in MLL Related Leukemias: Competition With Texas Red Labeled MLL-derived Mutant Peptide; for FP activity change, negative = inhibition: % of control where 0% means no effect
Details: fluorescence polarization; FP activity change, negative = inhibition: at 61.6 µM (top of the series)
Potency is the fitted concentration of half-maximal effect; tags give direction and shape of the fitted curve or compound fluorescence and quenching.

Chain of UniProt O00255 (O00255 whole entry, looked up): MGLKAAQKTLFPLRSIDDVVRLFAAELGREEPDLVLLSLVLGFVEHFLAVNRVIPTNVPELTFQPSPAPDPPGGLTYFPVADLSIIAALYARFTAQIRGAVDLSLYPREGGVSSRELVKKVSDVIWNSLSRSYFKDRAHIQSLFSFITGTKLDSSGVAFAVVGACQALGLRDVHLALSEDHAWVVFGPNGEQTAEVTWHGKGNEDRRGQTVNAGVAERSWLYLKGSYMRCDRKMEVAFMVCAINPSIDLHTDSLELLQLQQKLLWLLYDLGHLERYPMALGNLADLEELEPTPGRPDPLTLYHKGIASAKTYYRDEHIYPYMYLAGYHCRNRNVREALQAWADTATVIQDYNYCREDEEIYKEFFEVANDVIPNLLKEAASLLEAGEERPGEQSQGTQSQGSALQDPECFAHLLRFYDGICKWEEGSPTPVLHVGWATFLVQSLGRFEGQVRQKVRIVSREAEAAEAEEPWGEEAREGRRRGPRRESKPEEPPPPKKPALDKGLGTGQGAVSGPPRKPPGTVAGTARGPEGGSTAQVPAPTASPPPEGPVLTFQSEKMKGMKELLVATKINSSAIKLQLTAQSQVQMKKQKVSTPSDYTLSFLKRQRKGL

Compound | Potency | FP activity change, negative = inhibition
Cc1[nH]c2ccccc2c1/C=N/Nc1nc(Nc2ccccc2)nc(N2CCOCC2)n1 | inconclusive: 4.47 µM [quencher, side channel, full curve] | 
CCCOc1ccc(-c2c(C(=O)N/N=C/c3ccco3)nnn2-c2nonc2N)cc1 | inconclusive: 28.2 µM [quencher, side channel, partial curve] | 
Cc1ccccc1N(CC(=O)Nc1ccc(S(=O)(=O)N2CCOCC2)cc1)S(C)(=O)=O | inconclusive: 11.2 µM [quencher, side channel, partial curve] | 
CCOc1oc(-c2ccc(OC)cc2)nc1C(F)(F)F | inconclusive: 39.8 µM [fluorescent, side channel, single point] | 
C#CCOCCOCCOCCNc1nc(N2CCN(C(=O)[C@H]([C@@H](C)CC)n3cc([C@@H](N)CO)nn3)CC2)nc(N2CCN(C(=O)[C@H]([C@@H](C)CC)n3cc([C@@H](N)CC(C)C)nn3)CC2)n1 | inconclusive: 6.31 µM [fluorescent, side channel, partial curve] | 
O=CNCCCc1nc2ccccc2n1Cc1cccc2ccccc12 | inconclusive: 22.4 µM [fluorescent, side channel, single point] | 
C/C(N)=C(/C#N)C(=O)CSc1nn(-c2ccc(Cl)cc2)c(=S)s1 | inconclusive: 11.2 µM [quencher, side channel, partial curve] | 
Nc1nc(-c2ccc(Cl)cc2)nn1C(=O)c1cccs1 | inconclusive: 4.47 µM [quencher, side channel, single point] | 
CCN1C(=NCc2ccc(OC)cc2)N[C@@H](CCc2ccccc2)[C@H](C(=O)NCc2ccc(OC)cc2)[C@H]1C | inconclusive: 2.82 µM [inhibitor, full curve, poor fit] | 
Cc1cccc(OCC(=O)NC(=S)N2CCCc3ccccc32)c1 | inconclusive: 15.8 µM [fluorescent, side channel, partial curve] | 
Cc1ccc2c(C)c(C(=O)N3CCN(c4cnccn4)CC3)oc2c1C | inconclusive: 15.8 µM [fluorescent, side channel, partial curve] | 
CCOC(=O)/C(C#N)=N/Nc1ccc(S(=O)(=O)N2CCc3ccccc32)cc1 | inconclusive: 14.1 µM [quencher, side channel, partial curve] | 
Oc1cccc2c(NC(=S)Nc3ccc(OC(F)F)cc3)cccc12 | inconclusive: 25.1 µM [quencher, side channel, partial curve] | 
CSCCCNC(=O)c1ccccc1OC1CCN(S(C)(=O)=O)CC1 | inconclusive: 15.8 µM [inhibitor, partial curve] | 
c1ccc(Nc2nc3ccccc3[nH]2)nc1 | inconclusive: 35.5 µM [quencher, side channel, single point] | 
COc1cc(C)ccc1OCc1cc(C(=O)N2CCCCCC2)no1 | inconclusive: 8.91 µM [inhibitor, full curve, poor fit] | 
CCn1c2ccccc2c2cc(NC(=O)c3ccco3)ccc21 | inconclusive: 28.2 µM [quencher, side channel, single point] | 
O=C(Nc1ccncc1)Nc1cccc(Cl)c1Cl | inconclusive: 15.8 µM [quencher, side channel, single point] | 

Compound | Potency | FP activity change, negative = inhibition
O=C(CCSc1ccccc1)Nc1nc2c(s1)COc1ccccc1-2 | inconclusive: 22.4 µM [quencher, side channel, partial curve] | 
CC(=O)C1=C(NC(=O)c2ccccc2F)C[C@@H]2[C@H]1C2(C)C | inconclusive: 31.6 µM [fluorescent, side channel, single point] | 
O=C(O)c1cccc2c1/C(=N/Nc1ccc([N+](=O)[O-])cc1[N+](=O)[O-])c1ccccc1-2 | inconclusive: 35.5 µM [quencher, side channel, single point] | 
CCN(CC)CCn1c(=N)n(CC(O)c2ccc(OC)c(OC)c2)c2ccccc21 (stereo not given) | inconclusive: 31.6 µM [inhibitor, single point] | 
CCCCNS(=O)(=O)c1ccc(OC)c(Cl)c1Cl |  | inactive: -15%
Cc1ccc2nc(-c3ccsc3)c(NC3CCCC3)n2c1 | inconclusive: 11.2 µM [inhibitor, partial curve, poor fit] | 
COc1ccc(/C=N/NC(=O)c2ccc(O)cc2)cc1CN1CCCc2ccccc21 | inconclusive: 11.2 µM [quencher, side channel, partial curve] | 
CCC(C)NCCOCCOc1ccc(Cl)cc1Br (stereo not given) | inconclusive: 8.91 µM [fluorescent, side channel, partial curve] | 
CCOc1ccccc1-c1nc(-c2ccc(C)nc2OC)no1 |  | inactive: 7.52%
O=C(/C=C/c1cccc(Cl)c1)N1CCC(Cc2ccccc2)CC1 | inconclusive: 28.2 µM [fluorescent, side channel, single point] | 
CCOc1cc(CNC)ccc1OCC(=O)NC(C)(C)C | inconclusive: 6.31 µM [inhibitor, partial curve, poor fit] | 
COc1cccc(OC)c1C(=O)N1CCN(S(=O)(=O)c2ccc(C)cc2)CC1 | inconclusive: 28.2 µM [fluorescent, side channel, single point] | 
Cc1ccc(C(=O)Nc2ncc(Cc3ccc(F)cc3)s2)o1 | inconclusive: 17.8 µM [quencher, side channel, partial curve] | 
CC(=O)c1ccc(NC(=S)NC(=O)Cc2ccc(Cl)cc2)cc1 | inconclusive: 20 µM [fluorescent, side channel, partial curve] | 
Cc1ccc(S(=O)(=O)/N=C2/NC(=O)/C(=C/c3ccc(Br)o3)S2)cc1 | inconclusive: 25.1 µM [quencher, side channel, single point] | 
Cc1cc(C)c(C#N)c(N2CCCC2)n1 |  | inactive: 1.57%
CCOC(=O)c1sc(=NC(=O)C2CC2)n(C)c1C | inconclusive: 7.94 µM [fluorescent, side channel, full curve, poor fit] | 
